Results taken from the supplement of paper PMC3334620.
Over roughly 33,000 sequences, “E-score (-0.5 to 0.5)” has its median near -0.056; the highest 2% begin near 0.38. Some of the results follow.

Biological target: Stb4 (UniProt P50104)
Assay: PBM E-score (8-mer binding enrichment) (E-score (-0.5 to 0.5)); higher = stronger / more preferred TF binding; most listed sequences are background and not binding sites
Settings: protein concentration: 200 nM; construct: GST-DNA-binding domain
Procedure, shortened: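 Using PURExpress in vitro transcription/translation, GST-tagged yeast transcription factors were made in full-length or DNA-binding-domain form. These were applied at about 100-200 nM to double-stranded universal all-10-mer Agilent arrays, and bound protein was detected with fluorescent anti-GST. Scans were normalised with masliner before the Universal PBM Analysis Suite assigned E-scores to ungapped eight-base words pooled with their reverse complements.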

Sequence | PBM E-score
GAAGAACC | 0.115
CAGGTACC | 0.055
GAAGCGTC | -0.1
CCTCCTCG | -0.0782
GAACGGGC | -0.0646
AGTCTGCG | -0.292
GTTGGGGA | -0.0878
AGTGGGTA | 0.157
CACATGGG | -0.101
AGCATCCC | 0.0749
AGACCGAT | 0.0617
CACGCAGA | -0.154
ACTACAAC | -0.0348
TATGGGAA | -0.034
AAAAACGA | -0.133
TCTCCGCA | 0.147
GCAAGCCC | -0.0367
ATAGCAAA | -0.162
CATGCGGC | 0.00229
GTATGAGA | 0.0301
ATGAGGAA | -0.0309
AAGCGCGG | 0.03
CCAAGCGA | -0.246
CCCGACAC | 0.312
ATCCCATA | 0.051

Sequence | PBM E-score
CAAGTTGG | -0.17
CATGGTCC | -0.0446
ATACTGCG | -0.106
AGTCACAA | -0.173
ATTTTTGC | 0.0861
GCGTGAGA | -0.17
AACCTTTC | 0.07
ATTGTCGG | 0.357
CGGAAAAG | 0.373
AAGAGAGT | -0.168
AACCAGCA | -0.169
CCACAACC | -0.0387
CTAGAGCC | -0.0985
CACTCTCC | 0.0418
CCTTAATA | -0.095
ACTGGTGA | -0.226
CCCCCCCA | -0.243
GATGCATA | 0.025
GGTACAGA | 0.0691
CAAGATAG | -0.105
CATCCTGC | -0.05
GCGATTAC | -0.0382
CCACTCAC | -0.181
GACCGCGA | 0.0256
GCCTGGTA | -0.265

Sequence | PBM E-score
ACCACACG | -0.122
CATGGAGG | -0.26
CTAGCGCC | -0.224
GGTCTAAC | 0.0261
GCCGAGAA | 0.406
AGTTTCTA | -0.151
CTTTCAGC | -0.0513
CGGCTATA | 0.325
AACCCCTT | -0.136
TCGATTAA | -0.0064
AGTGCGCC | -0.131
CAAGCACC | -0.232
CTTACCTA | -0.121
GACTCGAC | 0.0122
CTCCAAAA | -0.248
ATTTGGTC | -0.00158
ACATAACC | 0.137
ACGCATCC | 0.147
CAGCGTGG | -0.209
CCTTTTGA | -0.0576
AAGTGTGC | -0.0418
CACTACCA | -0.0381
GCTGTTAC | 0.0172
AACCAACT | -0.112
GTAGAGAC | -0.206

Sequence | PBM E-score
GATTAGAA | -0.071
CTTCAGAC | -0.227
CTATGTTA | 0.122
CATGTACA | -0.222
CCGTTTAC | 0.122
GCGTACAA | -0.25
CACGGCTC | 0.174
ACTATGCG | 0.0389
CTCGCATC | -0.0767
ATGACCTC | -0.232
AATGGTCT | -0.0529
AGCATGAA | -0.15
GGGCAAGA | 0.168
ACTCAGCG | -0.149
GAGTAGGA | -0.171
CAACTAGA | -0.182
AAGATATC | -0.0458
CTATTTGC | -0.145
CCTCGTTA | -0.245
CGCACTTC | 0.09
AAATTACA | 0.0466
CTTATATA | -0.00875
GCGGCTTA | 0.0783
GTCAAATA | -0.106
AACTGCGC | -0.135

Sequence | PBM E-score
AGGGGAAA | -0.0331
AATTGGCG | -0.155
CCGTGACG | 0.0932
AAGATTTG | -0.0201
CAACGTCC | -0.0242
GATGATGA | 0.0102
GTAGCCAC | -0.128
ATTACTCC | 0.109
AAGATTGT | -0.0946
ACCGTTAA | -0.0758
GAGTTTGA | -0.0453
ACCTGGCC | 0.0173
CATATACG | -0.0237
ACGGAAAC | 0.375
AACAAGGA | -0.0209
CCTGGGCG | -0.232
GGAGCTCC | 0.0821
ATTTATCG | -0.00851
CGAGTGCC | 0.0577
AAGAGGCT | -0.271
ACATCTTC | 0.0818
GGTCGGCA | 0.353
GATCGCGC | -0.0346
TCCCTAGA | -0.218
CGTTCATA | -0.204

Sequence | PBM E-score
CAACCTGA | -0.299
CACGATAA | 0.0193
CATGCCGC | 0.188
CCCATTCA | -0.0249
ACTTGAAA | -0.0385
ATACAACC | 0.0803
ACCGATGA | 0.126
CGTTTGGC | -0.00198
ATGGCCGC | 0.0472
AGGTTGTG | -0.249
CACGTAGA | -0.214
CGACTAAC | 0.0239
GAACCCCA | 0.0204
CCTACCAG | -0.302
GCATACTA | -0.0326
CCTAGCTA | -0.304
CCGGGTCA | 0.276
CAGAAAGA | -0.176
CACATTTA | -0.314
TGAAATCA | -0.111
GCCCTCTA | -0.171
AGCATAAT | 0.043
ACGCTCAG | -0.291
GCAGGGCA | -0.0426
AAAACATG | -0.0372

Sequence | PBM E-score
CAGTTACA | -0.0353
AGCTGATC | -0.067
GCGATTCA | -0.169
CTCTCGAC | -0.293
CGGTACAG | 0.198
CCGATCTC | 0.336
AGTGAATC | 0.0367
AAGGACCT | -0.0744
CGGTTAAG | 0.235
CACATCCG | 0.425
GAATCCCC | -0.0501
GCAAGAGC | -0.16
CGATGACG | 0.0234
GCCAGTCA | -0.115
ACTCAGTC | -0.154
ATCATCGA | -0.0603
ATAGAACG | 0.0415
TACGCAAA | -0.275
AGTCGAGA | -0.137
TAGTGGCA | -0.183
AAAGGCAG | -0.161
TCAACGGA | 0.191
CAACGATC | 0.0435
AGATATCG | -0.134
AGGGACCG | 0.00132

Sequence | PBM E-score
CGACGGGA | 0.248
AGTAGTAA | -0.122
CTCTTGAA | -0.146
CACTGTGA | -0.018
AATTAGAC | -0.215
ATTGGTCA | -0.131
AGGAGCGA | -0.18
ATCCGGCA | 0.38
ATGACTAG | -0.254
GGCAGTCA | -0.00955
CAAGGCTG | -0.364
CGTGCGTC | 0.0687
CATTCACC | 0.232
GGTAACTA | 0.226
CGGCCGGC | 0.26
AACGTACA | -0.208
CCTAAAAG | -0.401
CAGGAAAG | -0.2
ACGCGTGA | -0.117
ACTGTGGC | -0.288
AGCTGTCA | -0.177
AACGGCTC | 0.191
CTCCACTC | -0.187
CGCCTTAG | -0.078
AACGCCCA | -0.239

Sequence | PBM E-score
CGTTCGGA | 0.465
CACAGGGA | -0.0891
CAGAAACC | -0.0498
ACTCCAGG | -0.0314
GCTAGTAA | 0.00537
AGTGTATA | -0.136
CAATCTAA | -0.142
GAGTTCGC | 0.0169
AGCGAGCT | 0.089
CGCGTGAG | -0.102
AGGTTCAC | 0.0161
AAACTACT | -0.201
GACCGGTA | -0.0223
CGTTGATC | -0.209
CCTAGCCC | -0.125
AAAGATGT | -0.0871
GAGGAGCC | -0.0919
CACAGGCA | -0.361
AACGGAGA | -0.0019
